Results as given in publication PMC6919601, “Identification of Plasmodium dipeptidyl aminopeptidase allosteric inhibitors by high throughput screening” (PLoS ONE, 2019).
Screen size: about 110,000 compounds; about 230 (0.21%) showed an effect of 50% or more. Some of the results follow.

biological target: DPAP1 (Plasmodium falciparum, UniProt Q8IIJ9); experiment: primary screen, percent inhibition; read by cleavage of a fluorogenic dipeptide substrate; higher = more effect of the substance; set-up: species or system P. falciparum D10 trophozoite lysates; single well
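Also: 30 min substrate incubation versus DMSO and 10 µM JCP410 controls.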

Chain of DPAP1 (Q8IIJ9 whole entry, looked up): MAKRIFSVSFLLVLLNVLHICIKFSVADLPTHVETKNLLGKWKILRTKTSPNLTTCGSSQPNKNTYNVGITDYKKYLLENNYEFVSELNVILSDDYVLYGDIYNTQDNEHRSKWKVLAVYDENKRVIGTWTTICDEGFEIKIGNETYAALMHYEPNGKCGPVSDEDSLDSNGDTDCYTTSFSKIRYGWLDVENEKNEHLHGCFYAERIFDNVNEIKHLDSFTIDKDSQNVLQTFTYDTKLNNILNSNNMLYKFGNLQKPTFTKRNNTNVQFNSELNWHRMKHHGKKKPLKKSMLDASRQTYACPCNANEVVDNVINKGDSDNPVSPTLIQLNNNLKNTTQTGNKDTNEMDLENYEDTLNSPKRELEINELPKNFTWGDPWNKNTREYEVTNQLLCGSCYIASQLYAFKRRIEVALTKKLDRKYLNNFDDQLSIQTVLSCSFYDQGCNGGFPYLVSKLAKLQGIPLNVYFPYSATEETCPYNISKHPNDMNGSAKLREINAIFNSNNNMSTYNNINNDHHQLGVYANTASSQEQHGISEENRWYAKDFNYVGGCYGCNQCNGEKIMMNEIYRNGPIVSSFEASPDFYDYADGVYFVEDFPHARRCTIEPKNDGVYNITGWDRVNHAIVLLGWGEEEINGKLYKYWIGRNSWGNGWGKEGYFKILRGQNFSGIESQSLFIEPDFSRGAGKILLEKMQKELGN

| Compound | % Inhibition @ 10 uM [%] |
| --- | --- |
| CC(C)CNc1nc(Oc2ccc(OCc3ccccc3)nn2)nc(N2CCOCC2)n1 | 5.2 |
| CCCCNC(=O)CNC(=O)c1cccs1 | 3.66 |
| O=C(COc1ccc(Cl)cc1)N1CCN(C2C3CC4CC(C3)CC2C4)CC1 (centres unmarked) | -3.4 |
| O=C(Nc1ccc(Br)c2cccnc12)c1ccc(Cn2cc(Cl)cn2)o1 | 5.9 |
| CCc1nn(CC(=O)NCc2ccccc2OC)c(=O)c2cc3sccc3n12 | 1.8 |
| Cc1ccc(S(=O)(=O)Cc2nc(-c3ccc(C(=O)NCCN(C)C)cc3)oc2C)cc1 | -2.4 |
| O=C(O)c1ccccc1C(=O)Nc1ccc(-c2ccccc2)cc1 | -0.736 |
| COC(=O)C1=C(C)N(CC2CCCO2)C(=O)/C1=C\c1cccc(Br)c1 (centres unmarked) | -3.4 |
| COc1ccc(CNS(=O)(=O)c2cccc3cccnc23)cc1 | -3.44 |
| O=S(=O)(c1cnc(Cl)c(Br)c1)N1CCc2ccccc21 | 0.389 |
| CCc1ccc(OCC(=O)Nc2ccc(S(=O)(=O)NC(C)(C)C)cc2)cc1 | -0.695 |
| COc1ccc(/C=C2/C(=O)NC(=O)N(C(C)(C)C)C2=O)c(OC)c1 | -1.69 |
| CC(C)(C)c1ccc(C(=O)NCc2ccco2)cc1 | -0.48 |
| Cc1ccc(NC(=O)CN2C(=O)N/C(=C/c3ccco3)C2=O)cc1 | -2.19 |
| O=C(CN(c1cccc(Br)c1)S(=O)(=O)c1ccccc1)NC1CC1 | 6.79 |
| COc1ccc2nc(SCC(=O)N3CCc4ccccc4C3)nc(C)c2c1 | -1.06 |
| CC(C)(C)c1ccc(Cn2c(-c3nonc3N)nc3ccccc32)cc1 | 3.48 |
| CCCN(CCO)C/C(Br)=C/c1ccccc1 | 3.35 |
| CN1CCc2c(sc3nc(SCC(N)=O)nc(SCC(N)=O)c23)C1 | -2.46 |
| CCC(NS(=O)(=O)c1ccccc1)C(=O)O (centres unmarked) | -5.28 |
| COc1cc(C(=O)Nc2cccc(C)c2)cc(OC)c1OC | 4.96 |
| CC(CCc1ccccc1)NCC1CCCO1 (centres unmarked) | -0.0908 |
| COc1ccc(N(CC(=O)NC2CCCC2)S(=O)(=O)c2ccc(C)cc2)cc1OC | -3.04 |
| O=C1NC2(CCCCC2)N=C2C3CCCC12CN(C1CCCCC1)C3 (centres unmarked) | 0.0289 |
| COc1cc(CNCC2CCCO2)cc(Cl)c1OCc1ccccc1 (centres unmarked) | -3.45 |
| COc1ccc2cc3cc(C(=O)NCc4cc(Br)ccc4OC)oc3nc2c1 | -1.54 |

| Compound | % Inhibition @ 10 uM [%] |
| --- | --- |
| CCCN1CCN(C(=O)Cn2ncc3c4cc(C)ccc4nc-3c2O)CC1 | -1.61 |
| COc1ccc(NC(=O)C2CCC(C)(C(=O)O)C2(C)C)cc1 (centres unmarked) | -5.51 |
| COc1cc2nc(S)nc(NCCCN3CCOCC3)c2cc1OC | 2.39 |
| O=C1C2C3C=CC(CO)(O3)C2C(=O)N1c1cccc(C(F)(F)F)c1 (centres unmarked) | -4.72 |
| O=C(CCc1c[nH]c2ccccc12)NC1CC1 | -4.67 |
| COc1cccc2cccc(NC(C)=O)c12 | -5.49 |
| O=C(Nc1ccc(F)cc1F)c1cccs1 | 2.13 |
| CC(C)(C)c1ccc(C(=O)Nc2nonc2N)cc1 | -0.403 |
| O=C(COc1ccc2ccccc2c1)NCCC1=CCCCC1 | 0.583 |
| CC1CCCCN1CCCNC(=O)c1ccc2nc(N3CCOCC3)sc2c1 (centres unmarked) | -2.37 |
| O=C(CCC1CCCC1)Nc1cccnc1Cl | -0.872 |
| Cc1nn(-c2ccccc2)c2sc(C(=O)NCc3ccccc3)cc12 | 2.6 |
| COc1ccc(C2C=C(c3cccc(Br)c3)Nc3nnnn32)c(OC)c1 (centres unmarked) | -7.08 |
| CCCCN(C)C(=O)Cn1ncc2c3ccccc3n(Cc3ccccc3)c2c1=O | 3.4 |
| CCc1ccc(-c2nc(SCC(=O)NCCOC)c(-c3ccc(OC)c(OC)c3)[nH]2)cc1 | -1.58 |
| O=C(NCC1CCCO1)Nc1cnc2ccccn2c1=O (centres unmarked) | 0.401 |
| COc1cccc(CN2CCN(c3ccccc3)CC2)c1 | -3.71 |
| Cc1ccc(C)c(OCC(=O)Nc2ccccn2)c1 | -2.76 |
| CCN1CCC(N2CCCCC2C)CC1 (centres unmarked) | -5.44 |
| CC1CCc2cc(F)ccc2N1C(=O)COc1ccccc1 (centres unmarked) | -1.49 |
| COC(=O)c1cc(S(=O)(=O)NCC2CCN(CCc3cccs3)CC2)c[nH]1 | 5.88 |
| O=C1CC(c2ccccc2)NC(c2ccccc2)C1 (centres unmarked) | -5.5 |
| COc1ccc(S(=O)(=O)N(C)CC(=O)Nc2cccc(C(F)(F)F)c2)cc1 | 9.75 |
| Fc1ccc(-c2cn3c4ccccc4n(CCN4CCOCC4)c3n2)cc1 | 2.14 |
| N=C1/C(=C/c2c[nH]c3ccccc23)C(=O)N=C2SC=C(c3ccccc3)N12 | -2.65 |
| CC1=C(C(=O)N2CCCCC2)C(c2cc(Br)ccc2F)C2=C(O)CCCC2=N1 (centres unmarked) | 4.11 |

| Compound | % Inhibition @ 10 uM [%] |
| --- | --- |
| Cc1nc2ccccc2cc1C(=O)NCc1cccnc1 | 6.61 |
| COc1cc(/C=c2\sc3nc(-c4cccc(C)c4)nn3c2=O)cc(OC)c1OC | 8.44 |
| Cc1cccn2cc(-c3cccc(NC(=O)c4c(F)cccc4F)c3)nc12 | -0.653 |
| O=C(O)c1cccc(NC(=O)c2ccccc2)c1 | -1.45 |
| Cc1ccc(S(=O)(=O)N(CC(=O)Nc2ccc(C(N)=O)cc2)C2CCCCC2)cc1 | 0.475 |
| O=C(CCCCCN1C(=O)c2ccccc2C1=O)NCc1ccccc1 | 0.317 |
| CCc1ccc(CNCc2c(C(=O)O)[nH]c3cc(OC)ccc23)cc1 | -0.397 |
| Cc1cc2nc3s/c(=C/c4ccc(F)cc4)c(=O)n3c2cc1C | -2.35 |
| COc1ccccc1CNC(=O)c1cccc(Br)c1 | -4.15 |
| COc1ccc(Cl)cc1N(CC(=O)Nc1ccc(C)c(C)c1)S(C)(=O)=O | -0.185 |
| CCCNC(=O)C(C)N1Cc2ccccc2C1=O (centres unmarked) | 1.08 |
| Cc1ccc(NC(=O)c2cccc(C)c2)nc1 | -0.251 |
| COc1cc(/C=C2/NC(=O)NC2=O)c(Br)cc1OCc1ccccc1F | 3.29 |
| Cc1ccc(C(C)NC(=O)CC#N)cc1C (centres unmarked) | 4 |
| COc1ccc(-c2nc(CS(=O)(=O)CC(=O)NCCCN3CCN(C)CC3)c(C)o2)cc1 | -1.89 |
| CC1=C(c2nc(-c3ccccc3)no2)C(c2ccsc2)NC(S)=N1 (centres unmarked) | -3.85 |
| CNC(=O)c1[nH]cnc1C(=O)Nc1ccccc1OC | 0.755 |
| COc1ccc2c(CNCC3CCCO3)c(C(=O)O)n(Cc3ccccc3C)c2c1 (centres unmarked) | -4.37 |
| OC1=C2C(=Nc3ccccc3NC2c2cccc(O)c2)CC(c2ccccc2)C1 (centres unmarked) | -3.26 |
| O=C(Nc1ccc(Cl)cn1)C12CC3CC(CC(C3)C1)C2 | 4.1 |
| CCCCOc1ccc(N2C(=O)CC(N3CCN(c4ccccn4)CC3)C2=O)cc1 (centres unmarked) | -9.4 |
| COc1ccccc1-c1cc(C(=O)N2CCc3ccccc3C2)no1 | -1.28 |
| CC(=O)c1nn(-c2cccc(Br)c2)cc1C(=O)c1ccccc1 | -1.49 |
| CC1=C(c2ccc(C)c(C)c2)S(=O)(=O)N=C1N1CCC2(CC1)OCCO2 | 2.27 |
| O=C1C(=O)N2C(=C1C(=O)N1CCCCCC1)c1ccccc1CC21CCCCC1 | 0.475 |
| O=C(O)c1c(CNC2CCCc3ccccc32)c2ccccc2n1Cc1ccccc1F (centres unmarked) | 5.09 |

| Compound | % Inhibition @ 10 uM [%] |
| --- | --- |
| COc1ccc2oc(=O)cc(CN(C)Cc3ccco3)c2c1 | -3.49 |
| COCCCN(C(=O)c1sc2nc3n(c(=O)c2c1C)CCCCC3)C(C)c1ccncc1 (centres unmarked) | 2.62 |
| Cc1ccccc1C(=O)NCCn1ccc2ccccc21 | 3.67 |
| Clc1ccc(-c2nn3c(-c4ccco4)nnc3c3ccccc23)cc1 | -1.35 |
| C=COCCNC(=S)Nc1ccccc1 | 8.01 |
| O=C1c2cccnc2C(=O)N1Cc1ccc(S(=O)(=O)NC2CCCCCC2)cc1 | -0.742 |
| CCCNC(=O)CN(c1ccc(CC)cc1)S(C)(=O)=O | -0.795 |
| COc1cc(OC)cc(C(=O)Nc2ccc(C)cc2C)c1 | -2.32 |
| O=C(CSc1ccc2nnc(-c3ccccn3)n2n1)c1ccccc1 | 2.22 |
| O=c1cc(NCCc2c[nH]c3ccccc23)c2ccccc2o1 | -1.68 |
| CC1CCN(C(=O)CNC(=O)c2ccccc2)CC1 | -4.75 |
| N=C1S/C(=C\c2ccc(N3CCOCC3)cc2)C(=O)N1c1ccccc1Cl | -6.39 |
| COc1ccc(-c2nonc2NC(=O)c2ccccc2Br)cc1 | 0.635 |
| Cc1ccc(S(=O)(=O)N2CCN(C(=O)N3CCCCC3)CC2)c(C)c1 | -3.78 |
| CCOC(=O)c1c(NC(C)=O)sc2c1CCC(C#N)=C2Cl | -2.42 |
| Cc1c(C(=O)N2CCN(c3ccccc3)CC2)cccc1[N+](=O)[O-] | 1.74 |
| COc1ccc(CNC2CCCC2)cc1Br | 3.48 |
| O=C(Cn1c(=O)c2cccn2c2cccnc21)NCCc1cccs1 | -10.2 |
| CC(CCCC(C)(C)O)NC1CCN(CCc2ccccc2)CC1 (centres unmarked) | 4.74 |
| COc1ccc(C2N=C(NO)c3ccccc3N2)cc1 (centres unmarked) | -0.424 |
| COc1cc(/C=C2\SC(=O)N(CC(=O)N3CCOCC3)C2=O)ccc1OCC(=O)O | -1.11 |
| O=C(CCC(=O)N1Cc2ccccc2Oc2ncccc21)NCc1cccnc1 | -4.13 |
| Cc1ccc(CN2CCc3c([nH]c4ccccc34)C2)s1 | 0.472 |
| Cc1ccc(C)c(N2C(=O)CC(N3CCc4ccccc4C3)C2=O)c1 (centres unmarked) | -2.32 |
| Cc1ccc(CCNC(=O)c2oc3c(c2C)-c2n[nH]cc2CC3)cc1 | 3.87 |
| CC1(C)O[C@H]2[C@@H](O1)[C@@H](C(=O)NCc1ccc(Cl)cc1)O[C@@H]1OC(C)(C)O[C@@H]12 | 6.31 |
